Results on one molecule are retold here after the supplement of paper PMC8728848.

What all share (assay): glycan array binding signal (z-score within array); higher = stronger binding
What all share (conditions): glycan notation: IUPAC condensed, linker removed

In assay [1] the target is Gal(b1-3)GlcNAc(b1-6)[Gal(b1-3)]GalNAc. A digest of the protocol: (§1)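 Glycan array binding is given as a within-array Z-score, which can be read as non-binding when negative. The arrays, 3228 of them, came from the Consortium for Functional Glycomics database and were retained only where the protein sequence was available. Z-scores were averaged across arrays of the same protein sequence at different concentrations or buffers and across linkers.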

The target in a further assay is Gal(b1-3)GlcNAc6S. The essentials: as §1
Assay [2] concerns the target Gal(b1-3)[Fuc(a1-4)]GlcNAc. A digest of the protocol:
as §1

In assay [3] the target is Gal(b1-3)[Fuc(a1-4)]GlcNAc(b1-2)Man. A digest of the protocol:
as §1

In assay [4] the target is Gal(b1-3)[Fuc(a1-4)]GlcNAc(b1-2)Man(a1-3)[Gal(b1-3)[Fuc(a1-4)]GlcNAc(b1-2)Man(a1-6)]Man(b1-4)GlcNAc(b1-4)[Fuc(a1-6)]GlcNAc. The essentials:
as §1

Assay [5] concerns the target Gal(b1-3)[Fuc(a1-4)]GlcNAc(b1-3)Gal(b1-3)[Fuc(a1-4)]GlcNAc. A digest of the protocol:
as §1

Assay [6] deals with Gal(b1-3)[Fuc(a1-4)]GlcNAc(b1-3)Gal(b1-4)[Fuc(a1-3)]GlcNAc. A digest of the protocol: as §1
Assay [7] has as its target Gal(b1-3)[Fuc(a1-4)]GlcNAc(b1-6)GalNAc. A digest of the protocol: as §1
The target in assay [8] is Gal(b1-3)[GlcNAc(b1-6)]GalNAc. A digest of the protocol: as §1
In assay [9] the target is Gal(b1-3)[Neu5Ac(a2-6)]GalNAc. A digest of the protocol:
as §1

The target of assay [10] is Gal(b1-3)[Neu5Ac(a2-6)]GlcNAc(b1-4)Gal(b1-4)Glc. A digest of the protocol: as §1
Assay [11] concerns the target Gal(b1-3)[Neu5Ac(b2-6)]GalNAc. The essentials: as §1
The next assay addresses Gal(b1-4)Gal. A digest of the protocol:
as §1

Assay [12] has as its target Gal(b1-4)GalNAc(a1-3)[Fuc(a1-2)]Gal(b1-4)GlcNAc. The essentials: as §1
The target of assay [13] is Gal(b1-4)GalNAc(b1-3)[Fuc(a1-2)]Gal(b1-4)GlcNAc. A digest of the protocol:
as §1

The next assay addresses Gal(b1-4)Glc. A digest of the protocol:
as §1

Another assay has as its target Gal(b1-4)Glc6S. The essentials:
as §1

For a further assay, the target named is Gal(b1-4)GlcNAc. The essentials: as §1
The target of assay [14] is Gal(b1-4)GlcNAc(a1-6)Gal(b1-4)GlcNAc. The essentials: as §1
The next assay concerns the target Gal(b1-4)GlcNAc(b1-2)Man. The essentials: as §1
For assay [15], the target named is Gal(b1-4)GlcNAc(b1-2)Man(a1-3)Man(b1-4)GlcNAc(b1-4)GlcNAc. The essentials: as §1
Assay [16] addresses Gal(b1-4)GlcNAc(b1-2)Man(a1-3)[Gal(b1-4)GlcNAc(b1-2)Man(a1-6)]Man(b1-4)GlcNAc(b1-4)GlcNAc. A digest of the protocol:
as §1

The list shows a part of the results.

B1: Pwp3 (Candida glabrata) (protein)
chain: MGSSHHHHHHSSGLVPRGSHMASKNPVDFTTVCQFPDNFSKKPGFLATTARLGLWITGNSYKELLNYPGTFTLTTQQASTTTPNIQLRGTDLFTTIYGLTVYPLYLLVELQGYFVPTQSGMYTFSLTGSDDAAIIFIGNPSTFPCDAFKTWPQATANDITVTDSINPSRTLYMVKGVAYPLRIAYYNGLGNGVLNAAFTDPSGTKRTDWNGYIWQYDQCSTCTYK
For the molecule B1, the “glycan array binding signal (z-score)” value in [1] is -0.594; in the assay with Gal(b1-3)GlcNAc6S, -0.176; in [2], -0.246; in [3], -0.28; in assay [4], 0.025; in [5] it was 0.002. Moreover, the “glycan array binding signal (z-score)” value in [6] was -0.076; in [7], 2.25; in assay [8], -0.425; in assay [9], -0.008; in [10], -0.089; in [11], 0.04. For the same molecule, the “glycan array binding signal (z-score)” value with Gal(b1-4)Gal was -0.526; in [12] it was -0.252; in assay [13], -0.435; with Gal(b1-4)Glc, 0.166; in the assay with Gal(b1-4)Glc6S it was -0.95; in the assay with Gal(b1-4)GlcNAc it was 0.362. The “glycan array binding signal (z-score)” value in [14] was -0.211; in the assay with Gal(b1-4)GlcNAc(b1-2)Man, -0.237; in assay [15] it was -0.306; in [16], -1.15.
